This assay concerns KRAS patient-derived spheroids with HUVEC/MSC, viability. The assay can be described thus: Anticancer human tumor 519858-162-T-J1-PDC patient-derived colon adenocarcinoma cell line growth inhibition [KRAS2]. The following applies: for viability, T/C: stronger effect = lower value; for IC50: compound alone. The source says: Multicellular complex tumor spheroid response to RAS pathway inhibitors in combination with a targeted agents in patient-derived cell lines with oncogenic KRAS variants from multiple cancer types
A high-throughput screen of multi-cell type tumor spheroids was designed to identify active combinations of targeted small molecules and KRAS pathway inhibitors. Complex spheroids include a stromal component modeled by human endothelial cells (HUVEC) and fibroblasts modeled by human mesenchymal stem cells (MSCs). The concentration ranges selected for each drug and investigational agent were based upon clinically achievable concentrations if the clinical Cmax of the agent was known.
Compounds. The drugs and investigational agents: BI-3406 (NSC825286), BAY-293 (NSC824723), batoprotafib (TNO155; NSC825523), sotorasib (AMG 510; NSC818433), MRTX1257 (NSC819558), elimusertib (BAY 1895344; NSC800525), molibresib (GSK525762; NSC774829), temuterkib (LY3214996; NSC803410), venetoclax (NSC766270), alisertib (NSC759677), olaparib (NSC753686), talazoparib (NSC767125), erdafitinib (NSC781556), ipatasertib (NSC767898), cabozantinib (NSC761068), nintedanib (NSC756659), abemaciclib (NSC768073), docetaxel (NSC628503), trametinib (NSC758246), and sapanisertib (NSC764658) were obtained from the National Cancer Institute (NCI) Developmental Therapeutics Program Chemical Repository. The FDA-approved anticancer drug set is available from the Developmental Therapeutics Program. […] The stock solutions were prepared in dimethyl sulfoxide (DMSO, Sigma-Aldrich, St. Louis, MO, cat. D2650) at 800-fold the tested concentration and stored at -70 degrees C prior to their use. All drugs and investigational agents were tested over a range starting from a high concentration at or near the clinical Cmax and decreasing in half-log increments. If the clinical Cmax for an agent had not been determined, the highest concentration tested was 10 microM.
Cell Culture. All cells were maintained in an incubator at 37 degrees C and 5% CO2 with 95% humidity. The PDC lines were cultured according to standard operating procedures established by the NCI PDMR (https://pdmr.cancer.gov/sops/default.htm). Briefly, all PDCs were thawed and cultured in Matrigel-coated flasks prepared with a working solution of 1X Ham's F-12 nutrient mix, without supplementation (Invitrogen, Waltham, MA, cat. 11765054), 100 U/mL penicillin-streptomycin (Invitrogen, cat. 15140122), and 2.5% Matrigel (Corning Inc., Corning, NY, cat. 354248) for the first three passages. All PDCs were cultured in complete DMEM/F-12 media containing advanced DMEM/F-12 (Invitrogen, cat. 12634028), 4.9% defined fetal bovine serum, heat inactivated (HyClone Laboratories Inc., Logan, UT, cat. SH30070.03HI), 389 ng/mL hydrocortisone (Sigma-Aldrich, cat. H4001), 9.7 ng/mL human EGF recombinant protein (Invitrogen, cat. PHG0313), 23.4 microg/mL adenine (Sigma-Aldrich, cat. A2786), 97.3 U/mL penicillin-streptomycin (Invitrogen, cat. 15140122), 1.9 mM L-glutamine (Invitrogen, cat. 25030081), and 9.7 microM Y-27632 dihydrochloride (Tocris Bioscience, Bristol, United Kingdom, cat. 1254). The PDCs were cultured in complete DMEM/F12 media without 9.7 microM Y-27632 dihydrochloride for at least two passages prior to the screen. The established cell line HOP-62 was cultured in RPMI 1640 medium, HEPES (Invitrogen, cat. 22400105) with 10% defined fetal bovine serum (HyClone Laboratories Inc., cat. SH30070.03) and 2 mM L-glutamine (Invitrogen, cat. 25030081). The pooled donor HUVEC were cultured in endothelial cell growth medium 2 (PromoCell, Heidelberg, Germany, cat. C-22011) and the hMSC were cultured in mesenchymal stem cell growth medium 2 (PromoCell, cat. C-28009). For all experiments, HUVEC and hMSC were used at passages </=5, while the malignant cell lines were used at passages </=15. […]

For part of its entries the source gives two or more results. Only these are listed. An entry can have further records. Values given together are repeats (runs, samples, wells, individuals or studies). Marks such as (2×) count equal records among those shown.
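Further: compound exposure lasted seven days before readout.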

One may read the viability, T/C as the result in the treated group divided by that in the control group, in per cent. Turning to `CCN1CCN(Cc2ccc(Nc3ncc(F)c(-c4cc(F)c5nc(C)n(C(C)C)c5c4)n3)nc2)CC1`, the viability, T/C (compound alone 0.0316 µM) is 81.9, 90.5, 65.3, 69.2, 85.5%.
With `COc1cc2nccc(Oc3ccc(NC(=O)C4(C(=O)Nc5ccc(F)cc5)CC4)cc3)c2cc1OC`, the viability, T/C reads like this: (compound alone 0.0316 µM) 111, 99.8, 93.2, 71.7, 99.4%; (compound alone 0.1 µM) 98.7, 123, 117, 94.8, 94.4%; (compound alone 1 µM) 104, 92.4, 98.7, 68.1, 85.9%; (compound alone 3.16 µM) 83, 125, 120, 108, 122%; (compound alone 10 µM) 107, 117, 144, 76.7, 152%.
For orientation: IC50 means the concentration that gives 50% inhibition. Take `CC(=O)Nc1cccc(-n2c(=O)n(C3CC3)c(=O)c3c(Nc4ccc(I)cc4F)n(C)c(=O)c(C)c32)c1`: the IC50 was 6.97, 2.13, 2.49, 2.4, 4.16 nM. Where the note is “compound alone 0.000316 µM”, the viability, T/C is 91.4, 99.5, 76.6, 65.7, 64%. Moreover, the viability, T/C (compound alone 0.001 µM) is reported as 89.4, 62.2, 64, 52.2, 56.8%. Where the note is “compound alone 0.00316 µM”, the viability, T/C is listed as 76.8, 42.7, 50.6, 60.8, 65.6%.
As for `Cn1nccc1Nc1nccc(-c2cc3c(s2)C(C)(C)N(CCN2CCOCC2)C3=O)n1`, the IC50 is reported as 5.33, 4.31, 6.07, 4.83, 1.13 µM. Further, the viability, T/C (compound alone 3.16 µM) is recorded as 77.8, 58.6, 68.4, 63.7, 47.6%.
For `CC1OCC2(CCN(c3cnc(Sc4ccnc(N)c4Cl)c(N)n3)CC2)C1N` (stereo not drawn), the viability, T/C by setting is: (compound alone 0.1 µM) 76.7, 105 (2×), 89.4, 73.2, 82.2, 85.5, 72.7, 97.4, 79.5, 78.4, 75.6, 84.2, 87.7, 61, 80.1, 83.3, 85.6% (2×); (compound alone 0.316 µM) 56.8, 52.9, 78.4, 67, 97.5, 69.1, 61, 105, 88.6, 80.1, 58.5, 59.2, 76.3, 77.4, 66.4, 65, 82.4, 79.5, 59.5%; (compound alone 1 µM) 68.8, 96.3, 96.9, 68.2, 65.4 (2×), 78.7, 89.3, 65.5, 75, 70.4, 63.5 (2×), 71.2, 84, 79.3, 70.1, 98.3, 60.5%; (compound alone 3.16 µM) 58, 58.4, 56.2 (2×), 73.4, 61.9, 53.7, 56.9, 63.8, 80.7, 47.4, 49.7, 64.6, 66.3, 57.3, 39.2, 47.9, 58.3, 72.8, 51.9%; (compound alone 10 µM) 65.1, 82.3, 69, 63.2, 61.8, 63.7, 50, 56.8, 58.5, 64.4, 80.5, 70.2, 73.7, 57.9, 47.5, 75.6, 35.9, 77.2, 44.9, 62%. In addition, for the setting “run of 07/26/2021”, the IC50 is recorded as 2.19 µM, > 10 µM, 4.74 µM, 3.51 µM, 3.13 µM.
On to `CCNC(=O)CC1N=C(c2ccc(Cl)cc2)c2cc(OC)ccc2-n2c(C)nnc21` (stereo not drawn), for which the viability, T/C by setting is: (compound alone 0.0316 µM) 93.7, 105, 100, 71.2, 84.3%; (compound alone 0.1 µM) 99.8, 78.8, 70.6, 85.2, 82.6%; (compound alone 0.316 µM) 69.3, 75.1, 104, 66.2, 84.4%; (compound alone 3.16 µM) 48, 48.5, 54.7, 21.8, 48.1%; (compound alone 10 µM) 35.3, 28.3, 40.8, 6.83, 25.1%.
Consider `CC(C)n1nc(-c2ccc3oc(N)nc3c2)c2c(N)ncnc21`, for which the viability, T/C is 74, 83, 103, 91, 104% (compound alone 0.000316 µM); 69.5, 82.4, 107, 75.8, 92.8% (compound alone 0.00316 µM); 71.8, 63.8, 60.6, 88.2, 97.7% (compound alone 0.01 µM); 82.4, 51.9, 68.4, 73.5, 85.6% (compound alone 0.0316 µM); 58.9, 50.8, 48.9, 70.1, 84.2% (compound alone 0.1 µM).

(Values after PubChem BioAssay AID1963872 (Molecular Pharmacology Branch, DTP, NCI, 2024).)
